Results: the RNAGym collection of RNA variant scans (doi:10.7554/elife.90254)
Read counts are not given, so values of variants with three or more changes are uncertain.

B1: LINE1-mini (parent)
chain: GGCAGAGCUCAACACAGCGUGGCAAAGUGGCUGUGGCUAGACUGCC

Variants of: B1
Assay: self-cleavage, relative activity (ratio to wild type); higher = more cleavage; in vitro, sequencing; the parent is a self-cleaving ribozyme

With G5A G35U C37A as the variant, how does the self-cleavage read?
Its self-cleavage is 0.06.

Which self-cleavage does the source give for G5C A11U G22U here?
The self-cleavage was 0.04.

Which self-cleavage does the source give for G5A G22C U28G U32A here?
The self-cleavage was 0.01.

For G5C A12C C15G, which self-cleavage is on record?
Its self-cleavage is 0.

For G5A G22C G27U A41U C42A, which self-cleavage is on record?
The self-cleavage was 0.03.

With G5C A16C U34A as the variant, how does the self-cleavage read?
Its self-cleavage is 0.1.

Which self-cleavage does the source give for G5A G7U G27U G33U U34C U38C here?
The self-cleavage was 0.08.

For G5A G7C G36A A39G, which self-cleavage is on record?
Its self-cleavage is 0.06.

For G5A U20C G21A C23A C31U, which self-cleavage is on record?
Its self-cleavage is 0.05.

For G5C A6U C10A C13A U32A U38A, which self-cleavage is on record?
The self-cleavage was 0.02.

With G5C A11U G21A G29A as the variant, how does the self-cleavage read?
Its self-cleavage is 0.03.

For G5A G29C G40A C45U, which self-cleavage is on record?
Its self-cleavage is 0.01.

For G5C A12U G19U A25G G35A U38C, which self-cleavage is on record?
Its self-cleavage is 0.02.

With G5C A6C G7A G17U G40A as the variant, how does the self-cleavage read?
The self-cleavage was 0.08.

With G5A G7A G22A G27A as the variant, how does the self-cleavage read?
The self-cleavage was 0.27.

For G5A G7C C15U A16C U32C A41U U43C, which self-cleavage is on record?
Its self-cleavage is 0.05.

Which self-cleavage does the source give for G5C A24U C31A here?
Its self-cleavage is 0.07.

Which self-cleavage does the source give for G5C A12C G29U here?
The self-cleavage was 0.05.

For G5C A6C U34A, which self-cleavage is on record?
The self-cleavage was 0.02.

For G5C A14U C31A G40U, which self-cleavage is on record?
Its self-cleavage is 0.02.

For G5C A24U C45U C46U, which self-cleavage is on record?
Its self-cleavage is 0.07.

Which self-cleavage does the source give for G5A U9A G29U U38C A39C here?
The self-cleavage was 0.11.

For G5A G36U G40C, which self-cleavage is on record?
Its self-cleavage is 0.06.

Which self-cleavage does the source give for G5C A14G C15A A16G G22A A41C here?
Its self-cleavage is 0.02.

For G5A G7C A24C A25U U32C C42A C45G, which self-cleavage is on record?
Its self-cleavage is 0.02.

Which self-cleavage does the source give for G5C A6U A26C U43A here?
Its self-cleavage is 0.02.

For G5A U9C G27A U38C, which self-cleavage is on record?
The self-cleavage was 0.

For G5A C18G G27A G40A, which self-cleavage is on record?
Its self-cleavage is 0.12.

For G5A C31U A41U C42G, which self-cleavage is on record?
Its self-cleavage is 0.04.

Which self-cleavage does the source give for G5C A14G G35U here?
The self-cleavage was 0.13.

Which self-cleavage does the source give for G5A U20A U38C G44U C45A here?
Its self-cleavage is 0.

For G5A G29C C46A, which self-cleavage is on record?
Its self-cleavage is 0.01.

Which self-cleavage does the source give for G5A G29U A39C here?
Its self-cleavage is 0.06.

For G5A G17U G21A, which self-cleavage is on record?
Its self-cleavage is 0.04.

Which self-cleavage does the source give for G5A U9G A26C here?
Its self-cleavage is 0.09.

Which self-cleavage does the source give for G5A G7C G30A C42G here?
The self-cleavage was 0.08.

For G5A U28A U32G, which self-cleavage is on record?
Its self-cleavage is 0.01.

For G5A G21U G40U, which self-cleavage is on record?
Its self-cleavage is 0.12.

With G5A C18U G35U C45A as the variant, how does the self-cleavage read?
The self-cleavage was 0.08.

Which self-cleavage does the source give for G5C A12C G19U G29A here?
The self-cleavage was 0.01.

For G5A U20G G22U A24C, which self-cleavage is on record?
The self-cleavage was 0.03.

Which self-cleavage does the source give for G5A G22A G27U G35C here?
Its self-cleavage is 0.17.

Which self-cleavage does the source give for G5A U9C A16G C18G C23A C37A here?
Its self-cleavage is 0.01.

Which self-cleavage does the source give for G5A U20A G33U G36C here?
Its self-cleavage is 0.04.

With G5C A11C G19A G30A as the variant, how does the self-cleavage read?
The self-cleavage was 0.02.

For G5C A6G C23G C37A A39C U43A, which self-cleavage is on record?
The self-cleavage was 0.45.

With G5A G22C U34C as the variant, how does the self-cleavage read?
Its self-cleavage is 0.1.

For G5A C31G U32G U34A, which self-cleavage is on record?
The self-cleavage was 0.06.

With G5C A11G G30A G40U as the variant, how does the self-cleavage read?
The self-cleavage was 0.02.

With G5A G7C C10U A11U A25U U28C as the variant, how does the self-cleavage read?
The self-cleavage was 0.01.

Which self-cleavage does the source give for G5C A24G A25U U43C here?
The self-cleavage was 0.02.

Which self-cleavage does the source give for G5A G17U U38C here?
Its self-cleavage is 0.05.

For G5C A6C G7U U28C, which self-cleavage is on record?
The self-cleavage was 0.18.

With G5C A6C U9A as the variant, how does the self-cleavage read?
Its self-cleavage is 0.29.

With G5A C23U G29A A41U C46U as the variant, how does the self-cleavage read?
Its self-cleavage is 0.04.

For G5A G22A C31G, which self-cleavage is on record?
The self-cleavage was 0.04.

For G5C A6C A14U U28G G40U, which self-cleavage is on record?
Its self-cleavage is 0.03.

Which self-cleavage does the source give for G5A U9A A24U here?
Its self-cleavage is 0.35.

For G5C A11G A16U, which self-cleavage is on record?
Its self-cleavage is 0.01.

For G5C A6U A16U C18G C23G A25C A26C, which self-cleavage is on record?
The self-cleavage was 0.03.

For G5C A6U G21C C23A C42U, which self-cleavage is on record?
The self-cleavage was 0.72.

Which self-cleavage does the source give for G5C A6C A24U A25U here?
Its self-cleavage is 0.09.

For G5A G29A C42G, which self-cleavage is on record?
Its self-cleavage is 0.05.

For G5A C23U G30C C31G U32A, which self-cleavage is on record?
The self-cleavage was 0.05.

With G5A U9A A26U G27A U32A as the variant, how does the self-cleavage read?
The self-cleavage was 0.52.

Which self-cleavage does the source give for G5C A14U C15G U38A U43C C45U here?
The self-cleavage was 0.03.

Which self-cleavage does the source give for G5C A6U G33U here?
Its self-cleavage is 0.27.

With G5C A16C G33A as the variant, how does the self-cleavage read?
The self-cleavage was 0.14.

Which self-cleavage does the source give for G5A U9A C23G G36A U38A here?
Its self-cleavage is 0.22.

With G5C A11U G19U U28C as the variant, how does the self-cleavage read?
Its self-cleavage is 0.02.

Which self-cleavage does the source give for G5A U9A U32A here?
Its self-cleavage is 0.19.

Which self-cleavage does the source give for G5A C31G U32A C37A here?
Its self-cleavage is 0.02.

For G5C A14G A41C, which self-cleavage is on record?
Its self-cleavage is 0.01.

Which self-cleavage does the source give for G5C A16U G33U here?
Its self-cleavage is 0.09.

Which self-cleavage does the source give for G5C A6G C42U C45A here?
The self-cleavage was 0.17.

Which self-cleavage does the source give for G5C A25C G27A C31G here?
The self-cleavage was 0.02.

Which self-cleavage does the source give for G5A G7U A39G G40A here?
Its self-cleavage is 0.16.

Which self-cleavage does the source give for G5C A12G G35C C45A here?
Its self-cleavage is 0.01.

Which self-cleavage does the source give for G5C A11U A24G here?
The self-cleavage was 0.05.

For G5A U20C C45U, which self-cleavage is on record?
Its self-cleavage is 0.19.

Which self-cleavage does the source give for G5A C31U U34C here?
Its self-cleavage is 0.02.

For G5A G36A U38G, which self-cleavage is on record?
The self-cleavage was 0.03.

Which self-cleavage does the source give for G5A C31A G35C here?
Its self-cleavage is 0.05.

For G5C A6G C8G U34A A39U, which self-cleavage is on record?
The self-cleavage was 0.02.
